The values below come from PMC12820563, “FoxP3 forms a head-to-head dimer in vivo and stabilizes its multimerization on adjacent microsatellites”.

The list shows a part of the results.

The assay addresses T1, MBP-FoxP1dN (Mus musculus, UniProt P58462 326-579).
T1 sequence: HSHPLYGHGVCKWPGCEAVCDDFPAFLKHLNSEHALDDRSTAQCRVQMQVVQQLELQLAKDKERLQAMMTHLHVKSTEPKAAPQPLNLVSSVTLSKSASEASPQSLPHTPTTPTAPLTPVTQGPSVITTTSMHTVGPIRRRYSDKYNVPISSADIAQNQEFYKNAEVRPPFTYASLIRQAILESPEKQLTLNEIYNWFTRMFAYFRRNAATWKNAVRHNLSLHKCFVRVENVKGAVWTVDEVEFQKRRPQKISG
Put plainly: PD-seq (MBP pull-down with sequencing); 20 mM Tris-HCl pH 7.5, 100 mM NaCl, 1.5 mM MgCl2, 0.4 uM protein, 0.1 uM dsDNA library, 30 min, room temperature, amylose pull-down; high values mean tight binding. As to conditions: protein: recombinant; tags: His6-MBP; chain copies: 2; dsDNA, one strand shown. The gist of the method:
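A degenerate double-stranded DNA library, filled in with Klenow, was added at 0.1 µM to 0.4 µM His6-MBP-tagged mouse FoxP3 or FoxP1 fragment lacking the N-terminus, expressed in E. coli. Incubation lasted 30 min at room temperature in Tris pH 7.5 buffer with NaCl and MgCl2, after which complexes were collected on amylose resin, washed three times, digested with proteinase K to free the DNA, barcoded by PCR and sequenced by Illumina. Binding is the pooled-replicate reads-per-million enrichment of pull-down over input.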
As for “GATGATTGTTCTCCCAGCTGATGAATTCCCCGGCTCGAGTAAACAAATTTTCCTAATCTTTCTGTTCAAGCGCCATCTAC”, the binding signal was 0.696 RPM ratio (pull-down/input). In the case of “GATGATTGTTCTCCCAGCTGATGAATTGCAATAATCGAGTAAACAAATTTTCCTAATCTTTCTGTTCAAGCGCCATCTAC”, the binding signal is 1.71 RPM ratio (pull-down/input). Take “GATGATTGTTCTCCCAGCTGATGAATTCAGAGCATCGAGTAAACAAATTTTCCTAATCTTTCTGTTCAAGCGCCATCTAC”: the binding signal is 0.978 RPM ratio (pull-down/input). On to “GATGATTGTTCTCCCAGCTGATGAATTTCATACATCGAGTAAACAAATTTTCCTAATCTTTCTGTTCAAGCGCCATCTAC”, for which the binding signal was 1.04 RPM ratio (pull-down/input). Turning to “GATGATTGTTCTCCCAGCTGATGAATTCATGTTCTCGAGTAAACAAATTTTCCTAATCTTTCTGTTCAAGCGCCATCTAC”, the binding signal was 0.892 RPM ratio (pull-down/input). Consider “GATGATTGTTCTCCCAGCTGATGAATTCGGAAACTCGAGTAAACAAATTTTCCTAATCTTTCTGTTCAAGCGCCATCTAC”, for which the binding signal is 0.786 RPM ratio (pull-down/input). As to “GATGATTGTTCTCCCAGCTGATGAATTAGCCCGCTCGAGTAAACAAATTTTCCTAATCTTTCTGTTCAAGCGCCATCTAC”, the binding signal is 0.752 RPM ratio (pull-down/input). On to “GATGATTGTTCTCCCAGCTGATGAATTGATTCAATCGAGTAAACAAATTTTCCTAATCTTTCTGTTCAAGCGCCATCTAC”, for which the binding signal is 1.12 RPM ratio (pull-down/input). For the sequence “GATGATTGTTCTCCCAGCTGATGAATTAAGGATTTCGAGTAAACAAATTTTCCTAATCTTTCTGTTCAAGCGCCATCTAC”, the binding signal was 0.83 RPM ratio (pull-down/input). For “GATGATTGTTCTCCCAGCTGATGAATTTCTCCATTCGAGTAAACAAATTTTCCTAATCTTTCTGTTCAAGCGCCATCTAC”, the binding signal was 0.976 RPM ratio (pull-down/input). On to “GATGATTGTTCTCCCAGCTGATGAATTCCCTTGGTCGAGTAAACAAATTTTCCTAATCTTTCTGTTCAAGCGCCATCTAC”, for which the binding signal is 0.752 RPM ratio (pull-down/input). Turning to “GATGATTGTTCTCCCAGCTGATGAATTAGTTATATCGAGTAAACAAATTTTCCTAATCTTTCTGTTCAAGCGCCATCTAC”, the binding signal was 1.07 RPM ratio (pull-down/input). For “GATGATTGTTCTCCCAGCTGATGAATTCGGGATCTCGAGTAAACAAATTTTCCTAATCTTTCTGTTCAAGCGCCATCTAC”, the binding signal was 0.775 RPM ratio (pull-down/input). The value for “GATGATTGTTCTCCCAGCTGATGAATTCTATTAATCGAGTAAACAAATTTTCCTAATCTTTCTGTTCAAGCGCCATCTAC” was 1.07 RPM ratio (pull-down/input); that for “GATGATTGTTCTCCCAGCTGATGAATTGTGGCAATCGAGTAAACAAATTTTCCTAATCTTTCTGTTCAAGCGCCATCTAC” was 1.38 RPM ratio (pull-down/input); that for “GATGATTGTTCTCCCAGCTGATGAATTGCATCATTCGAGTAAACAAATTTTCCTAATCTTTCTGTTCAAGCGCCATCTAC” was 1.84 RPM ratio (pull-down/input). As for “GATGATTGTTCTCCCAGCTGATGAATTCTGACCCTCGAGTAAACAAATTTTCCTAATCTTTCTGTTCAAGCGCCATCTAC”, the binding signal is 0.771 RPM ratio (pull-down/input). Turning to “GATGATTGTTCTCCCAGCTGATGAATTGTCGTTATCGAGTAAACAAATTTTCCTAATCTTTCTGTTCAAGCGCCATCTAC”, the binding signal is 1.3 RPM ratio (pull-down/input). “GATGATTGTTCTCCCAGCTGATGAATTGGTCGCTTCGAGTAAACAAATTTTCCTAATCTTTCTGTTCAAGCGCCATCTAC”: the binding signal was 0.933 RPM ratio (pull-down/input).

For the sequence “GATGATTGTTCTCCCAGCTGATGAATTCCTGCGCTCGAGTAAACAAATTTTCCTAATCTTTCTGTTCAAGCGCCATCTAC”, the binding signal was 0.847 RPM ratio (pull-down/input). Regarding “GATGATTGTTCTCCCAGCTGATGAATTTCCTCTTTCGAGTAAACAAATTTTCCTAATCTTTCTGTTCAAGCGCCATCTAC”, the binding signal is 0.943 RPM ratio (pull-down/input). On to “GATGATTGTTCTCCCAGCTGATGAATTATACACCTCGAGTAAACAAATTTTCCTAATCTTTCTGTTCAAGCGCCATCTAC”, for which the binding signal was 1.1 RPM ratio (pull-down/input). Turning to “GATGATTGTTCTCCCAGCTGATGAATTATGTCATTCGAGTAAACAAATTTTCCTAATCTTTCTGTTCAAGCGCCATCTAC”, the binding signal was 1.3 RPM ratio (pull-down/input). For “GATGATTGTTCTCCCAGCTGATGAATTACCTTCCTCGAGTAAACAAATTTTCCTAATCTTTCTGTTCAAGCGCCATCTAC” the value was 0.933 RPM ratio (pull-down/input). For “GATGATTGTTCTCCCAGCTGATGAATTCTTAAACTCGAGTAAACAAATTTTCCTAATCTTTCTGTTCAAGCGCCATCTAC”, the binding signal is 0.925 RPM ratio (pull-down/input). On to “GATGATTGTTCTCCCAGCTGATGAATTCTCAGCCTCGAGTAAACAAATTTTCCTAATCTTTCTGTTCAAGCGCCATCTAC”, for which the binding signal was 0.804 RPM ratio (pull-down/input). Take “GATGATTGTTCTCCCAGCTGATGAATTTATGTGTTCGAGTAAACAAATTTTCCTAATCTTTCTGTTCAAGCGCCATCTAC”: the binding signal was 1.65 RPM ratio (pull-down/input).

Take “GATGATTGTTCTCCCAGCTGATGAATTAGCCACGTCGAGTAAACAAATTTTCCTAATCTTTCTGTTCAAGCGCCATCTAC”: the binding signal was 0.929 RPM ratio (pull-down/input). In the case of “GATGATTGTTCTCCCAGCTGATGAATTAACCAGGTCGAGTAAACAAATTTTCCTAATCTTTCTGTTCAAGCGCCATCTAC”, the binding signal is 0.843 RPM ratio (pull-down/input). Regarding “GATGATTGTTCTCCCAGCTGATGAATTGAACCATTCGAGTAAACAAATTTTCCTAATCTTTCTGTTCAAGCGCCATCTAC”, the binding signal was 0.893 RPM ratio (pull-down/input). With “GATGATTGTTCTCCCAGCTGATGAATTGCAGTATTCGAGTAAACAAATTTTCCTAATCTTTCTGTTCAAGCGCCATCTAC”, the binding signal is 1.33 RPM ratio (pull-down/input).

For the sequence “GATGATTGTTCTCCCAGCTGATGAATTTGTACGATCGAGTAAACAAATTTTCCTAATCTTTCTGTTCAAGCGCCATCTAC”, the binding signal was 1.1 RPM ratio (pull-down/input).

On to “GATGATTGTTCTCCCAGCTGATGAATTAGAATCGTCGAGTAAACAAATTTTCCTAATCTTTCTGTTCAAGCGCCATCTAC”, for which the binding signal is 0.932 RPM ratio (pull-down/input). As for “GATGATTGTTCTCCCAGCTGATGAATTGTCCCTATCGAGTAAACAAATTTTCCTAATCTTTCTGTTCAAGCGCCATCTAC”, the binding signal is 1.01 RPM ratio (pull-down/input). “GATGATTGTTCTCCCAGCTGATGAATTAGCTGAGTCGAGTAAACAAATTTTCCTAATCTTTCTGTTCAAGCGCCATCTAC”: the binding signal is 0.844 RPM ratio (pull-down/input). For “GATGATTGTTCTCCCAGCTGATGAATTCTGGGGTTCGAGTAAACAAATTTTCCTAATCTTTCTGTTCAAGCGCCATCTAC”, the binding signal is 0.765 RPM ratio (pull-down/input). Consider “GATGATTGTTCTCCCAGCTGATGAATTGCGTCCTTCGAGTAAACAAATTTTCCTAATCTTTCTGTTCAAGCGCCATCTAC”, for which the binding signal was 1.12 RPM ratio (pull-down/input).

“GATGATTGTTCTCCCAGCTGATGAATTGCTGAACTCGAGTAAACAAATTTTCCTAATCTTTCTGTTCAAGCGCCATCTAC”: the binding signal is 0.955 RPM ratio (pull-down/input).

In the case of “GATGATTGTTCTCCCAGCTGATGAATTGAGATTATCGAGTAAACAAATTTTCCTAATCTTTCTGTTCAAGCGCCATCTAC”, the binding signal is 0.982 RPM ratio (pull-down/input).

“GATGATTGTTCTCCCAGCTGATGAATTCTTGATGTCGAGTAAACAAATTTTCCTAATCTTTCTGTTCAAGCGCCATCTAC”: the binding signal is 1.37 RPM ratio (pull-down/input).
